Laboratory results taken from PMC9600267, “The Antibacterial Type VII Secretion System of Bacillus subtilis: Structure and Interactions of the Pseudokinase YukC/EssB” (mBio, 2022).
Where a chain is given by its changes, count along the chain named. In names and notes the source's numbering stands. No constants are given. Whether binding was seen depends on the method and setting. For some assays here: Binding seen in cells or lysates may run through a third protein. Some results given as binding are weak or reduced against the parent protein; the word gives no strength. Tags and fused reporters may be left off the sequences shown. One block for each binder: values may come before it.

Tests used:
[1] = target: T1, YueB, Strep-tagged (pRSF/yueB.strep) (Bacillus subtilis 168) (UniProt O32101); experiment: copurification by two successive affinity columns; coexpression in E. coli C43(DE3); membranes solubilized with 0.5% LDAO; StrepTrap (wash with 0.004% LMNG), then HisTrap; Coomassie SDS-PAGE and immunoblots
T1 sequence: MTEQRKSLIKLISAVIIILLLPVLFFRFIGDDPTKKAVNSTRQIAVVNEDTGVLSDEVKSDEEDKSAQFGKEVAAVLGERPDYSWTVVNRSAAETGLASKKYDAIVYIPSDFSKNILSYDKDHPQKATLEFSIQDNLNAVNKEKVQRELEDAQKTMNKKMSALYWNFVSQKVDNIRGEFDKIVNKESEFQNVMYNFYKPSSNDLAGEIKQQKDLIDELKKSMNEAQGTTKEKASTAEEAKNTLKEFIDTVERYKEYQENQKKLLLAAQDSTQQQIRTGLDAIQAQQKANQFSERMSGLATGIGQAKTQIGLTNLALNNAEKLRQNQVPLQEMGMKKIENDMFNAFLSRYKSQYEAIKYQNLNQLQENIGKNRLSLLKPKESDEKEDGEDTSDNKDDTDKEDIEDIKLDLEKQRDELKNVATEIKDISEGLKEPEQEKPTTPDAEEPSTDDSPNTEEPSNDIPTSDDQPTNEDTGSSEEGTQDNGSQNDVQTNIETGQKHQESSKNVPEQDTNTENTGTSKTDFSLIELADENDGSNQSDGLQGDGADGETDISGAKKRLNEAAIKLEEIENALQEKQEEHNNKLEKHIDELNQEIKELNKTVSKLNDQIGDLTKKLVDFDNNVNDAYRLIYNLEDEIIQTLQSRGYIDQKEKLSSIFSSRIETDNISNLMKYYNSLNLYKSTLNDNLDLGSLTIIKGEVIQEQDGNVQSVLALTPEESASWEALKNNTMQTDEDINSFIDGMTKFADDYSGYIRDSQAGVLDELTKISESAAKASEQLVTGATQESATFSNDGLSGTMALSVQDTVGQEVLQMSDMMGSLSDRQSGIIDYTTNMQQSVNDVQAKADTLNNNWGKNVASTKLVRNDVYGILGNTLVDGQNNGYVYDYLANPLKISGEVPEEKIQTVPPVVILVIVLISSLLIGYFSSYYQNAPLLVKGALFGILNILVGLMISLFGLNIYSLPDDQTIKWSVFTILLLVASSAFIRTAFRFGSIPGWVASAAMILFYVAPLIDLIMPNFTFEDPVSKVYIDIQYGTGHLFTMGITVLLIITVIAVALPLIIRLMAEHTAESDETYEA

[2] = target: His6-YukC I208C (Bacillus subtilis 168) (UniProt P71070); experiment: cross-linking; in vivo disulfide cross-linking of single-cysteine variants in B. subtilis; free thiols blocked with 5 mM N-ethyl maleimide; total extracts on SDS-PAGE with or without β-mercaptoethanol; anti-His immunoblot
[3] = target: His6-YukC I210C (Bacillus subtilis 168) (UniProt P71070); experiment: as above
[4] = target: His6-YukC R212C (Bacillus subtilis 168) (UniProt P71070); experiment: as above
[5] = target: His6-YukC H209C (Bacillus subtilis 168) (UniProt P71070); experiment: as above
[6] = target: T2, YukC413 (YukC lacking the last 38 residues), Strep-tagged (pRSF/yukC413.strep) (Bacillus subtilis 168) (UniProt P71070); experiment: copurification by two successive affinity columns; coexpression in E. coli BL21(DE3); membrane fraction solubilized with 1% Triton X-100; StrepTrap, then HisTrap; Coomassie SDS-PAGE, identities confirmed by LC-MS/MS
T2 sequence: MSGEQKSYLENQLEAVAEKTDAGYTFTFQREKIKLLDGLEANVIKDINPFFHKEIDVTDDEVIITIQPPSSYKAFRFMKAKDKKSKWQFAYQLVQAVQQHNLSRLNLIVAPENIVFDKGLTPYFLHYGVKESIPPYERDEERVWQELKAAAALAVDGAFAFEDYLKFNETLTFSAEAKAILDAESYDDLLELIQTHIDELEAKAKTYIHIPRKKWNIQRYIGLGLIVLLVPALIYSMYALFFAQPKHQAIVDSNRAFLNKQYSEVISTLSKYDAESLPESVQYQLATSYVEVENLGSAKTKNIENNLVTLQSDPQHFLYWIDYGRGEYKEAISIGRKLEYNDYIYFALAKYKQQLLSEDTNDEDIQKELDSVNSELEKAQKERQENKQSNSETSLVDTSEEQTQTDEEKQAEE

[7] = target: T3, YukCΔ217 (pseudokinase domain of YukC), Strep-tagged (pRSF/yukCΔ217.strep) (Bacillus subtilis 168) (UniProt P71070); experiment: copurification by two successive affinity columns; coexpression in E. coli BL21(DE3); StrepTrap, then HisTrap; 25 mM HEPES pH 8, 175 mM NaCl, 0.03% Triton X-100, 0.5 mM TCEP; SDS-PAGE (TGX stain-free) and immunoblots (anti-His6, anti-Strep); for full-length YukC from the detergent-solubilized membrane fraction
T3 sequence: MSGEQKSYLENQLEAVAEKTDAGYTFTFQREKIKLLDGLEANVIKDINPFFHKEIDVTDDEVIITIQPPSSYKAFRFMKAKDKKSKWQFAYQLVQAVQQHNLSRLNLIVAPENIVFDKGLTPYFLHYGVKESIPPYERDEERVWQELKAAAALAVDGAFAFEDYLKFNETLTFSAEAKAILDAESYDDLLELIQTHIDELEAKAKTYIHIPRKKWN

[8] = target: T4, YukC full length, C-terminally Strep-tagged (pRSF/yukCFL.strep) (Bacillus subtilis 168) (UniProt P71070); experiment: as above
T4 sequence: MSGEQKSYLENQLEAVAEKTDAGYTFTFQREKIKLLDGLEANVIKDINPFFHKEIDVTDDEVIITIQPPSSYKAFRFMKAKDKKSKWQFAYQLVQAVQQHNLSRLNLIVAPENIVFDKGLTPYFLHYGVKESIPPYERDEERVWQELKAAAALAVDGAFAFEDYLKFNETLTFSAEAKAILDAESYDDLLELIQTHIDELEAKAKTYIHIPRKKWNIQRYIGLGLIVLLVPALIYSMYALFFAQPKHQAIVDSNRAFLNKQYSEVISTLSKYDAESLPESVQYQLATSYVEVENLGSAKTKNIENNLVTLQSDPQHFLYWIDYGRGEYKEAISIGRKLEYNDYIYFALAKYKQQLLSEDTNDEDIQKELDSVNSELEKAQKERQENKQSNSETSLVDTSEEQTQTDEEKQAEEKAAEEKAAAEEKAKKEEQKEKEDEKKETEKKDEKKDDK

binding [1]: binds
B1: YukC full length, His6-tagged (pET15b/yukCFL.his) (protein, UniProt P71070 1-451)
chain: T4 sequence

binding [2]: binds
B2: His6-YukC I208C (protein, UniProt P71070 1-451)
chain: T4 sequence with I208C

binding [3]: binds
B3: His6-YukC I210C (protein, UniProt P71070 1-451)
chain: T4 sequence with I210C

binding [4]: binds
B4: His6-YukC R212C (protein, UniProt P71070 1-451)
chain: T4 sequence with R212C

binding [5]: binds
B5: His6-YukC H209C (protein, UniProt P71070 1-451)
chain: T4 sequence with H209C

binding [6]: binds
B6: YukE, His6-tagged (pET15b/yukE.his) (protein, UniProt C0SP85 1-97)
chain: MAGLIRVTPEELRAMAKQYGVESQEVLNQVDRLNRMISDLKSMWEGASSEAFADQYEQLKPSFIKMSDLLQDVNQQLDQTANTLESTDQDIANQIRG

binding [7]: binds | binding [8]: binds
B7: YukBFHA, His6-tagged (pCDF/yukBΔ256B.his) (domain or fragment, UniProt C0SPA7 1-256)
chain: MSLLWVFYQNNVQKLNLSNLPSSHPVTIGPDVKDSVTISTIPFNSGVISLKRKESGGQYEVFLGNDCLGTIETDISFTLQTDQQDIRLILTGSEPEKSVYFTGNRDEIVCSSEKTNADIYLNPQDFAFAEQSTFSLLRAGGSWSVRPESGTIFLNGEKINANTPLKPGDEIFWNFTQMRVTEQDLLEIVHYAQFETALTETVKPSTEMQKKYPQYRRTPRMVYDLPDDRVSFSFPSQESDQTNRGLWLVILPPLVM
